Test results taken from the antibiotic and cytotoxicity screens of Wong et al. (2023).
Some of the results follow.

Test system: S. aureus RN4220
Assay: growth inhibition call (relative growth <= 0.2)
Details: 50 µM

Growth inhibition call, inactive:
COCC(=O)Nc1ccc2c(c1)[C@H]1C[C@@H](CC(=O)N3CCOCC3)O[C@H](CO)[C@H]1O2, C[C@H](CO)N1C[C@H](C)[C@@H](CN(C)Cc2ccc3c(c2)OCO3)Oc2ccc(NC(=O)Nc3cccc4ccccc34)cc2C1=O, N=C(N=C(N)N)NCCc1ccccc1, C[C@H]1CN([C@@H](C)CO)C(=O)Cc2cc(NC(=O)c3ccncc3)ccc2O[C@@H]1CN(C)C(=O)Nc1ccc2c(c1)OCO2, COC(=O)C1C2CC3c4[nH]c5cc(OC)ccc5c4CCN3CC2CC(OC(=O)c2cc(OC)c(OC)c(OC)c2)C1OC (stereo unspecified), C[C@@H]1CCCCO[C@@H](CN(C)C(=O)Nc2ccc(F)cc2)[C@H](C)CN([C@@H](C)CO)C(=O)c2cc(NC(=O)CCCN(C)C)ccc2O1, O=C(O)CSCC(=O)N1CCCCC1, C[C@@H]1CCCCO[C@@H](CN(C)Cc2ccc(Cl)c(Cl)c2)[C@H](C)CN([C@H](C)CO)C(=O)c2cc(NC(=O)Nc3ccc(C(F)(F)F)cc3)ccc2O1, C[C@@H]1CCCCO[C@@H](CN(C)Cc2ccncc2)[C@H](C)CN([C@H](C)CO)C(=O)c2cc(NC(=O)Nc3ccc(F)cc3)ccc2O1, Cc1ccc(S(=O)(=O)N(C)C[C@@H]2Oc3ccc(NC(=O)NC(C)C)cc3C(=O)N([C@H](C)CO)C[C@H]2C)cc1, O=C(C[C@H]1CC[C@@H]2[C@H](COC[C@H](O)CN2S(=O)(=O)c2ccc(Oc3ccccc3)cc2)O1)NCCN1CCCCC1
